Experimental data reported in the supplement of paper PMC11417369.
± gives the standard deviation of the averaged measurements. This is one part of the list.

These sequences were tested on PfAP2-LT AP2 domain (GST-tagged) (assay: gcPBM binding intensity (ln(normalized median fluorescence intensity)); higher = stronger DNA binding).
Outline: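 DNA-binding domains from P. falciparum, fused to GST and produced in E. coli, were put on an Agilent 4 × 180k double-stranded probe array for 1 h in 1× PBS holding 1% milk, 0.2 mg/ml BSA, 0.5% salmon testes DNA and 0.03% Triton X-100. Probes were primer-extended, 36 bp long and drawn from intergenic genomic regions, with negative controls included. After Alexa488 anti-GST antibody detection and a 488 nm scan, binding intensity was set as the highest Masliner-normalised natural-log median intensity across replicate spots of either probe orientation.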

Row | Sequence | gcPBM binding intensity (ln)
1 | TATGTGCCAAGACACACACACATATTTATATTTATA [CACACA_site6360] | 9.74 ± 0.23
2 | TTATTATTATATGAATGTACTTAAAAATACATTTTG [XGTACX_site2959] | 8.47 ± 0.44
3 | ATTCTATATACACGCACACACACTTATATATATATA [CACACA_site3322] | 9.7 ± 0.22
4 | CCCTTTTCTAAATATTGTACGTATAAATTATATTAC [XGTACX_site7676] | 8.86 ± 0.61
5 | AGAGATTATAAAATATGTACTAAATATTAAATCTTA [XGTACX_site7050] | 8.54 ± 0.47
6 | AAAAAAATATTATAATATATATATATATATATATAT [GTGCAC_negctrl_site399] | 9.03 ± 0.15
7 | AAAGAAAGCACATACACACACAAAAAAAAAAAAGAA [CACACA_site776] | 9.63 ± 0.35
8 | AAAGTAAAAATATACTGTACAAATTTTTTCCCCTCT [XGTACX_site171] | 8.74 ± 0.36
9 | ATTTTTTAAAAAGTAACACACACTCTTATAAATAAC [CACACA_site7668] | 8.87 ± 0.29
10 | ATATTTATATACAAATGTACGCATATAATATATATA [XGTACX_site1232] | 8.77 ± 0.33
11 | GATGCACTTTAAAAATGTACTTATACCTTTAATTGT [XGTACX_site6395] | 8.76 ± 0.41
12 | AAACAAAAAAAAAAAAAAAAAAAAAAAAAAAAAAAA [GTGCAC_negctrl_site254] | 8.21 ± 0.45
13 | GAAATGTATATTTTTACATGCAAATAAAATATATAA [TGCATGCA_site439] | 8.6 ± 0.4
14 | CATACACATAGACACACACACATATATACCTATATA [CACACA_site6644] | 9.72 ± 0.42
15 | ATAACGACCTAGACGTGTACATACAAAGGAATGAAA [XGTACX_site4870] | 9.17 ± 0.51
16 | TTTTTCTTGAATCGAAGTACTTAGGAGGGGATATTT [XGTACX_site2862] | 8.91 ± 0.014
17 | ACACAATATATATATTGTACATACACATATTTACTA [XGTACX_site1872] | 9 ± 0.38
18 | GAATATAAACATATTACACACATCTATAGGTACATT [CACACA_site6983] | 9.2 ± 0.32
19 | AATATATACATATATGTACACACATTACAGATGTAC [CACACA_site8227] | 9.2 ± 0.29
20 | ATAGAATCTGGTAGCTGTACGAGTCGTAGAGTGCAG [XGTACX_site2026] | 9.06 ± 0.46
21 | AGGACTAATATTTGAACACACATATAATATATACAT [CACACA_site3998] | 9.02 ± 0.45
22 | TTTTGTAATTCTCTTCATATAATTTATATATATATA [CACACA_negctrl_site1825] | 8.56 ± 0.42
23 | GTGTTTTTTTTAGATTGTACATATATATATATATAT [XGTACX_site4562] | 9.43 ± 0.42

Row | Sequence | gcPBM binding intensity (ln)
24 | ACCCAACATATGTGTACACAGAAAATAAATATAATA [CACACA_site5901] | 9.05 ± 0.49
25 | GTATATATTCATATGGAAAATAAAGGAGAAAACAAG [TGCATGCA_negctrl_site220] | 8.88 ± 0.38
26 | ATGTATGTATAATATACACACTCACAAGCATTCAAA [CACACA_site4306] | 9.08 ± 0.38
27 | TTTGTTTTTTCTTTTTGTACATATACAAGATACGTA [XGTACX_site2309] | 8.63 ± 0.35
28 | AATAAAAACTAAACATGTACGCACATATATATATAT [XGTACX_site8096] | 9.63 ± 0.26
29 | TAAGTGCATGAGATATGTACATATATAAAATATATA [XGTACX_site3294] | 9.08 ± 0.67
30 | TAAAAAAAAAAAAATACACACACACCGATATATATA [CACACA_site8498] | 9.76 ± 0.19
31 | TCATAGTCTTAATGACTACACACCTAACTATGCATG [CACACA_site1839] | 9 ± 0.47
32 | ATATATATACATACATACCTATGTATATGTGTAATT [GTGCAC_negctrl_site50] | 8.82 ± 0.38
33 | ATGGTAGTGATTAAAAGTACACGTAATTGTAAAAAT [XGTACX_site387] | 9.04 ± 0.53
34 | TAAACAACTTATAAATGTACACATATTTTAATTACC [XGTACX_site5409] | 8.69 ± 0.44
35 | ATAAACATATCAATATGTACATATTTTTGTTTGTAT [XGTACX_site7018] | 8.93 ± 0.48
36 | ATTTATCAATAAAATGCACACACTGTAATATTATTA [CACACA_site3976] | 9.03 ± 0.36
37 | AAACCACAAAATTTTTTATATATGACCAATACATAG [CACACA_negctrl_site277] | 8.64 ± 0.45
38 | TTATAATAGTTAAATGTACACACTAACTACATGGAA [CACACA_site9070] | 8.85 ± 0.42
39 | TTATAAATTATAGGTACACACAAAAAAAAAAAGAAA [CACACA_site1327] | 8.87 ± 0.51
40 | ATTTGTTACACTAAATGTACATACATACATATATAT [XGTACX_site6175] | 9.1 ± 0.52
41 | AGCACAGACGGACACACACACATATATATATATATA [CACACA_site4341] | 10.37 ± 0.085
42 | ATATATATGTATGTATGTACATATTTGAATTTATTT [XGTACX_site8470] | 8.97 ± 0.54
43 | ACAGATATACATAAAAAAAAAATAATTTTACATATA [CACACA_negctrl_site929] | 8.49 ± 0.57
44 | TTCCATATAATTACATGTACACATTTTGAATAATAT [XGTACX_site3692] | 8.96 ± 0.46
45 | AATAATAATAAATATACACACATCATACAATTAACA [CACACA_site3679] | 9.2 ± 0.41
46 | TATTTTTTTCTTACTACACACATATAGATGCTTTCC [CACACA_site7825] | 8.96 ± 0.47

Row | Sequence | gcPBM binding intensity (ln)
47 | GGTCTTTTCAACACACGTACATAAAAATATTATACA [XGTACX_site5360] | 8.86 ± 0.23
48 | TATATATTGATATGCACACCTATGTATTGATGTATA [CACACA_site1073] | 9.11 ± 0.35
49 | TAAACATATAGAGGGGTGCAAAGAATTGTAAAATTT | 8.79 ± 0.61
50 | TATATATATAATTAAAGTACATATAACCACAAAAAT [XGTACX_site7289] | 8.96 ± 0.36
51 | ACATAAATTTAATACACACACAAAGAAAAAAAAAAA [CACACA_site4088] | 9.46 ± 0.55
52 | TAATATAATATATATACACACAAGAAATACAAAACG [CACACA_site1378] | 9.36 ± 0.4
53 | ATATTATTATAATATACATATATATATATAATATAT [CACACA_negctrl_site480] | 8.7 ± 0.33
54 | TATTAATCTAATTCATAAAAAATGATCTATTTTGTT [CACACA_negctrl_site1035] | 8.37 ± 0.47
55 | AAAATGAACAGACACACACACATATTTATATTTATA [CACACA_site7182] | 9.68 ± 0.38
56 | ACCTAAAAGGTATAATATATAAATAAAAAAAAAAAT [CACACA_negctrl_site134] | 8.84 ± 0.54
57 | AACATTTGATAAGATACACACACAAGGAAAAAAATA [CACACA_site8004] | 9.43 ± 0.44
58 | TAGAATAATCTATAAACACACAAACACAACAAAAGA [CACACA_site7861] | 9.31 ± 0.47
59 | TTTTTTTCTTTATTAGCACACATAATATTATATATG [CACACA_site8841] | 8.88 ± 0.45
60 | TATATCATTATATAAACACACAATATGTTTTTTATA [CACACA_site3781] | 8.56 ± 0.45
61 | TATTATTTTTTAAATTGTACAATAAATTATAAAAGG [XGTACX_site1162] | 8.23 ± 0.38
62 | GAAAAGCAGATAAATGTGCACATATATGTTTGTATA | 9.11 ± 0.52
63 | TATAGGTATATATAAGTGCAATATATATGTATATAC [GTGCAC_site9427] | 8.95 ± 0.45
64 | ACATAAAATTGTTAAAAAATTGTATAAATAATACAT [XGTACX_negctrl_site557] | 8.54 ± 0.42
65 | CAGCTCTTAAAAATTACACACATATACTCATATATA [CACACA_site5757] | 8.87 ± 0.35
66 | AGATATTTTATAATTACACACATGAGGTTATTTGAA [CACACA_site1999] | 8.88 ± 0.32
67 | TTATAAAAATAATATCGTACAAATGACATAGATGAA [XGTACX_site2570] | 8.78 ± 0.45
68 | CATATACATAAACACACACACACATAAATAAATATA [CACACA_site4864] | 10 ± 0.13
69 | CACATACCCATACAAACACACATTATATATATATAT [CACACA_site4965] | 9.56 ± 0.33

Row | Sequence | gcPBM binding intensity (ln)
70 | AAAAAAAAAAAAAAAACACACATAAATAGCTCAAAT [CACACA_site3973] | 8.89 ± 0.52
71 | GATATATAAATAGATACACACATACATACATACATA [CACACA_site6260] | 9.38 ± 0.22
72 | ATATCGTGTGCATTAACACACATTTATTTGAATAAA [CACACA_site7162] | 9.12 ± 0.35
73 | TACGATTAAAAAAAATGTACAGATTTTTATAGAATA [XGTACX_site6561] | 8.44 ± 0.47
74 | ATATTACCCATATATGCACACATTGTAGTTATTTAT [CACACA_site2636] | 9.39 ± 0.37
75 | ATATAATTACCATATGGTACACACATATATATATGT [XGTACX_site7393] | 9.63 ± 0.31
76 | TTTTGTAGCAAAAAATAGGAAAAAAAAAAATTAAAT [GTGCAC_negctrl_site8] | 8.44 ± 0.49
77 | TTAAGATACAAAAAAGTGCATATTTTTTAACAAAAA | 8.54 ± 0.53
78 | TTAAGATATATAAAGAGTACACATAAGAGTAATGCT [XGTACX_site58] | 8.85 ± 0.44
79 | TATAATACATTATATTGTACTATATTATAATAAATT [XGTACX_site5934] | 8.55 ± 0.35
80 | GACAAATTATTGTGTACACAATATTATTATATATAC [CACACA_site6020] | 9.02 ± 0.37
81 | ACAAATAAAAATATTACACACACTATTCTAGTGATA [CACACA_site6812] | 8.93 ± 0.33
82 | TAAATATATATAATTACACACTTTTCTATAATATGA [CACACA_site711] | 8.57 ± 0.42
83 | CTTATGTTTTTTAAGTGTACATATTATACGTATTAT [XGTACX_site1176] | 9.02 ± 0.42
84 | AATATAAACATAGATAGATAAATAAATAAATAAACA [GTGCAC_negctrl_site567] | 8.92 ± 0.44
85 | AATAATTGTTAAAGGTGTACAATACGTATGTAAGAA [XGTACX_site1328] | 9.31 ± 0.54
86 | AACAGATATATATGTAGTACATGTTCTAGATATTTT [XGTACX_site1208] | 8.9 ± 0.42
87 | ATGTAGACATAATGGGGTACAAAAAAAAAAAAAAAA [XGTACX_site881] | 8.71 ± 0.58
88 | AAAAAAAATAAAAATAAAAATAAAAATAAAAATAAA [GTGCAC_negctrl_site437] | 8.23 ± 0.66
89 | TATCATTTTGTATATAGTACATATATAAAATCGTTA [XGTACX_site3875] | 8.48 ± 0.42
